The record followed here is PubChem BioAssay AID1346428 (National Center for Advancing Translational Sciences (NCATS), 2018).

Molecules are shown by their SMILES. Where “and” joins values, the source holds several entries; their conditions need not be identical. Equal values may be shown once. Out of some 48,000 compounds screened, about 1,200 (2.5%) were called active. Another 2% or so got no clear call; they are omitted.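 How the source made its calls: active means activation of at least 60% and not above a set upper limit (about 1 call in 100 departs from these limits); inconclusive means activation of 40% to 60%, or above that upper limit; inactive means activation under 40%.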 The list shows a part of the results.

The experiment has as its target Probable G-protein coupled receptor 32 (Homo sapiens) (UniProt O75388). The experiment can be described thus: qHTS for Agonists of Human Resolvin D1 Receptor DRV1. Further: 0% is about no effect. Particulars: CHO-K1 GPR32 beta-arrestin PathHunter luminescence, 90 min; at 76.9 µM; stronger effect = higher value; zero percent set by DMSO-only wells. The procedure, abridged: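 Cells are plated overnight, treated with compounds in DMSO for 90 minutes at 37 °C, and developed with PathHunter detection reagent for 1 hour before luminescence is read; signal reflects beta-arrestin binding to GPR32 in engineered CHO-K1 cells.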
UniProt O75388, sequence (O75388 whole entry, looked up): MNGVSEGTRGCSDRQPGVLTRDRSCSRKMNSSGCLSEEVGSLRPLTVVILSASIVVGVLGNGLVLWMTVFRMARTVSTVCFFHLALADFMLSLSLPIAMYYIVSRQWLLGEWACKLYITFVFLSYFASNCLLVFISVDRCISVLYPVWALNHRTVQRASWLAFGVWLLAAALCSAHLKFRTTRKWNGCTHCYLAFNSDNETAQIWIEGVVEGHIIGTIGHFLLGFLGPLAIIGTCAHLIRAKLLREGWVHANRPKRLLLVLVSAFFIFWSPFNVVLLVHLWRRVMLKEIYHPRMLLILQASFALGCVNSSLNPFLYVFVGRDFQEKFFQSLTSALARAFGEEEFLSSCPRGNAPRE
For orientation: In qHTS, concentration-response curves come from the screen itself.
Regarding `COc1ccc(-c2c3c(=O)n(C)c(=O)n(C)c3c3c(-c4cccc(C)c4)nc4ccccc4n23)cc1`, the activation was inactive: -25%.

Turning to `C=CCc1cccc(C=NNC(=O)CN2CCN(Cc3ccccc3)CC2)c1O`, the activation is inactive: -13.8%.

For `COc1ccc2cc3cc(C(=O)N4CCN(c5cccc(Cl)c5)CC4)sc3nc2c1`, the activation was inactive: -14.4%.

Consider `COc1ccc(NS(=O)(=O)c2ccc3c(c2)CCN3C(=O)CCC(=O)O)cc1Cl`, for which the activation was inactive: 9.06%.

For the compound `CCOc1ccc(NC(=O)Cn2cc(C(=O)c3ccc(CC)cc3)c(=O)c3cc(OC)c(OC)cc32)cc1`, the activation was inactive: 21.8%.

Consider `COc1ccc(S(=O)(=O)NCCCO)cc1-c1nnc2c3ccccc3c(C)nn12`, for which the activation is inactive: -2.91%.

Consider `CC(C)CCNC(=O)CSc1nc2ccccc2nc1Cc1ccccc1`, for which the activation was inactive: 30%.

Take `CCOC(=O)c1ccc2c(c1)N(C(CC)C(=O)Nc1ccccc1OC)C(=O)c1ccccc1S2` (stereo not drawn): the activation is inactive: -10.6%.

`Cc1ccc(NC(=O)Cn2nc(-c3ccncc3)ccc2=O)cc1Cl`: the activation is inactive: 3.72%.

With `CCc1ccc(-n2c(=O)c3sc4ccccc4c3n(CC(=O)NC3CCCCC3)c2=O)cc1`, the activation is inactive: 3.71%.

`Cc1cc(NC(=O)CCS(=O)(=O)c2cc(Br)cc3c2N(C(=O)C2CC2)CC3)ccc1Br`: the activation is inactive: -4.27%.

As to `CCOC(=O)c1nc(Nc2ccc(C(C)=O)cc2)c2ccccc2n1`, the activation was inactive: -28.5%.

Turning to `COc1cc2c(cc1OC)C(COc1ccc3c(C)cc(=O)oc3c1)N(C(=O)C(C)C)CC2` (stereo not drawn), the activation is inactive: -6.9%.

In the case of `COc1ccc(Cn2c(=O)c3cccnc3n(CC(=O)Nc3ccc(C)c(F)c3)c2=O)cc1`, the activation is inactive: -12.7%.

`Cn1ccc2cc3c(cc21)CCN3C(=O)Nc1cccnc1`: the activation was inactive: 3.3% and inactive: -6.23%.

Regarding `O=C(Nc1c(C(=O)Nc2ccc(F)cc2)oc2ccccc12)c1cc2ccccc2o1`, the activation was inactive: 0.797%.

For the compound `Cc1ccc(C)c(CN2CCC(CNC(=O)Nc3ccc(Br)cc3F)CC2)c1`, the activation is inactive: 18.6%.

Regarding `Cc1ccc(C)c(CNC(=O)c2ccc3c(c2)nc2n3CCCCC2)c1`, the activation was inactive: -13.1%.

For `Cc1cc(Oc2c(C(F)(F)F)oc3c(CN4CCC(C)CC4)c(O)ccc3c2=O)cc(C)c1Cl`, the activation is inactive: 4.87%.

Regarding `O=C(Cn1c(=O)oc2cc(S(=O)(=O)N3CCCCCC3)ccc21)NCc1ccccc1Cl`, the activation was inactive: 38.3%.

As to `Cc1cccc(-n2ccnc2SCC(=O)Nc2ccc(F)cc2F)c1C`, the activation is inactive: 26.9%.

With `COc1cccc(Cn2c(Oc3cc(C)cc(C)c3)nc3c2c(=O)n(C)c(=O)n3C)c1`, the activation was inactive: -13%.

Consider `COc1ccc(CC(=O)N2CCc3cc(OC)c(OC)cc3C2COc2cc(C)cc(C)c2)cc1OC` (stereo not drawn), for which the activation is inactive: -13.3%.

For `CCc1ccc(S(=O)(=O)N(C(=O)c2ccncc2)c2ccc3oc(C)c(C(=O)OC)c3c2)cc1`, the activation is inactive: 2.23%.

Take `Cc1cc(C)cc(NC(=O)CCS(=O)(=O)c2cccc3nsnc23)c1`: the activation is inactive: -4.1%.

In the case of `CCOC(=O)c1ccc(N2C(=O)c3n[nH]c(-c4ccco4)c3C2c2ccc(C)cc2)cc1` (stereo not drawn), the activation is inactive: 14.6%.

Take `Cc1nn(S(=O)(=O)c2ccc(Br)cc2)c(C)c1S(=O)(=O)N1CCCCCC1`: the activation is inactive: 20.9%.

On to `CCOc1ccc(CCNC(=O)CN2CCN(Cc3ccc(Cl)cc3)C2=O)cc1OCC`, for which the activation was inactive: 17.5%.

Take `CC(=O)c1ccc(NS(=O)(=O)c2cccc(S(=O)(=O)c3ccc(Cl)cc3)c2)cc1`: the activation is active: 61.4%.

Consider `Cc1cccc(NC(=O)CSc2ccc(-c3ccccn3)nn2)c1`, for which the activation is inactive: 4.67%.

As for `Cc1cccc(C)c1Nc1nn2c(=O)c3cc4c(cc3nc2s1)OCO4`, the activation is inactive: 24.6%.

Turning to `CCc1ccc(N(CC)C(=O)c2cc3c(=O)oc4ccc(C)cc4c3s2)cc1`, the activation was inactive: 35.7%.

Turning to `COc1cccc(NC(=O)C(=O)NCC(c2ccc3c(c2)OCO3)N2CCN(C)CC2)c1` (stereo not drawn), the activation was inactive: -7.83%.

Take `COc1cccc(C(=O)Nc2cccc(OCc3cc(=O)n4c5c(sc4n3)CCCC5)c2)c1`: the activation was inactive: -1.81%.

On to `CC(=O)Nc1ccc(NS(=O)(=O)c2c(C(=O)N3CCC(C)CC3)c(C)n(C)c2C)cc1`, for which the activation is inactive: -12.9%.

Regarding `CCc1ccc(-c2cn3c(n2)sc2cc(C(=O)NC4CCCCC4)ccc23)cc1`, the activation is inactive: 11.5%.

With `COc1cccc(-c2nc(S(=O)(=O)c3ccc(Cl)cc3)c(NCc3ccccc3)o2)c1`, the activation is inactive: -17%.

`COc1ccc(NC(=O)CCCSc2nc(-c3ccco3)cc(C(F)(F)F)n2)cc1OC`: the activation was inactive: 16.7%.

Regarding `CCCCN(CC)CCCNC(=O)c1cc2c(=O)[nH]c3ccccc3c2n1C`, the activation is inactive: -4.5%.

As for `COCCNc1oc(-c2ccccc2)nc1S(=O)(=O)c1ccc(Br)cc1`, the activation is inactive: -25.5%.

On to `COc1ccc2oc(=O)c(C(=O)NCCc3c(C)[nH]c4ccc(F)cc34)cc2c1`, for which the activation was inactive: 37.4%.

Take `O=c1c(-c2cc(-c3ccccc3)nc3c2COc2ccc(Cl)cc2-3)coc2ccc(F)cc12`: the activation is inactive: -7.44%.

Turning to `O=C(Nc1nc2n(n1)C(c1ccc(F)cc1)C=C(c1ccccc1)N2)c1ccco1` (stereo not drawn), the activation is inactive: 2.58%.

For `Cc1c(Cl)cccc1NC(=O)c1ccc2c(c1)CCN2S(=O)(=O)c1ccccc1`, the activation was inactive: -8.13%.

Take `Cc1c(C(=O)Nc2ccc(C(=O)O)cc2)nnn1-c1ccccc1`: the activation is inactive: -11.6%.

As to `Cc1ccc(CN2CCCN(CC(=O)Nc3ccc(C)cc3C)S2(=O)=O)cc1`, the activation is inactive: -2.92%.

`CSc1ccc(CCNC(=O)Cn2ccc3cc(S(=O)(=O)N4CCCCCC4)ccc32)cc1`: the activation was inactive: 8.71%.

As for `CCCCSc1nnc2c(n1)OC(c1ccc(Br)s1)N(C(C)=O)c1ccccc1-2` (stereo not drawn), the activation was inactive: -13.7%.

Consider `CN(C)c1ccc(C(CNC(=O)c2ccccc2C(F)(F)F)N2CCOCC2)cc1` (stereo not drawn), for which the activation is inactive: -9.74%.

`NC1CCN(c2nc3c(cc2F)c(=O)c(C(=O)O)cn3-c2ccc(F)cc2F)C1` (stereo not drawn): the activation is inactive: -7.63%.

For `CN(C)CCNc1ncnc2c1cnn2-c1cccc(Cl)c1`, the activation was active: 87.2%.

`COc1ccc(CNC(=O)C2CCCN(S(=O)(=O)c3cccc4nsnc34)C2)cc1` (stereo not drawn): the activation was inactive: 2.79%.

On to `CCOc1ccccc1-c1noc(CSc2nnc(-c3ccccc3)n2-c2ccc(F)cc2)n1`, for which the activation was inactive: -11%.
